The list shows a part of the results.
T1: UNK ZnF1-6 (called full-length) (human, UniProt Q9C0B0 30-357)
T1 sequence: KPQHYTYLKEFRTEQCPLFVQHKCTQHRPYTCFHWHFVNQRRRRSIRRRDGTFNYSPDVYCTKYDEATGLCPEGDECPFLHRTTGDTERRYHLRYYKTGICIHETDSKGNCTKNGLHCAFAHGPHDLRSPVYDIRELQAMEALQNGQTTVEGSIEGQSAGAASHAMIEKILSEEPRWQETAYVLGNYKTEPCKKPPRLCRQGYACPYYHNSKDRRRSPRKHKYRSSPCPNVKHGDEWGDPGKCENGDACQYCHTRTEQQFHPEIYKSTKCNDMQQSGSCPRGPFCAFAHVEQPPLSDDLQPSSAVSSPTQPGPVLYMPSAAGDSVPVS

B1: chr11:72288215:72288316:-|3pUTR|ENSG00000162129|unk|FALSE|unique (ssRNA)
RNA: GGGAGUUCUACAGUCCGACGAUCACCCAGCUAAUUUUUUUUGUAUUUUUAGUAAAGACGGGGUUUCACCAUGUUUGCCAGGCUAGUCUCAAACUCCUGGUCUCAAGUGAUCCACCCACCUUGGCCUCCCAGAGUGCUGAGAUUCAACAGAGGAUUGAGCAUCA
B2: ENSG00000124766:be:win_2051|3pUTR|ENSG00000124766|bound_else_gene|NA|bound_elsewhere_windowed (ssRNA)
RNA: GGGAGUUCUACAGUCCGACGAUCACGCAGGCGAAUUCCCGUUUGGGGCUUUUUUUUCCUCCCUCUUUUCCCCUUGCCCCCUCUGCAGCCGGAGGAGGAGAUGUUGAGGGGAGGAGGCCAGCCAGUGUGACCGGCGCUAGGAAACAACAGAGGAUUGAGCAUCA
B3: chr13:42321371:42321394:+|3pUTR|ENSG00000023516|msi1_unk|total|mutant (ssRNA)
RNA: GGGAGUUCUACAGUCCGACGAUCUUCUGUUUAUGGUGUAAUCAUUCUGAGGUGAGGCUUUUCUUAUUUCCUUUGCAUUUUGCCCGAGCUGUGCUGAGUUCAGCAUUUGCUUAUUUAACCACUACAUAAUGACAGACCAGUUAUCAACAGAGGAUUGAGCAUCA
B4: chr5:154419581:154419682:+|3pUTR|ENSG00000164574|msi1|FALSE|unique (ssRNA)
RNA: GGGAGUUCUACAGUCCGACGAUCAAAGGGAUGGGUGUGUCCUCUGAGCACUCUGGCAUUUGUCAUUGCUGAGCCCAUAUCAGUAGGUCCUGGGACUUGACAAAGUAUGUGGGAGGGGAAGGAAGGACAGAACUUGACUGGCUCCAACAGAGGAUUGAGCAUCA
B5: chr9:33053202:33053303:-|CDS|ENSG00000122692|msi1|FALSE|unique (ssRNA)
RNA: GGGAGUUCUACAGUCCGACGAUCCCUAAAACUUUAGAAAUUUUUAUACCUAAAAAAGGUUUAUAACUUAAAUUUCUGUGUGGUAGAUCUGGAAUAUGAAGACCACAGAAUGUUCAAAUACCUUUAAAUCCCUGGGCAGCACCGCAACAGAGGAUUGAGCAUCA
B6: chr14:49622334:49622435:+|CDS|ENSG00000168282|unk|FALSE|unique (ssRNA)
RNA: GGGAGUUCUACAGUCCGACGAUCCAAUACUUGACUGUAUCUUGUCUUCCAAAAUUCUGGAAAGUGCUGGUUCCUCAAAUUCCUAGGAUCUUUCAUGCUGGAGACUGUGGUAUGCAUCACAAGAAAACCUGUAGACCAUCCACUCAACAGAGGAUUGAGCAUCA
B7: chr15:85581792:85581893:+|CDS|ENSG00000170776|unk|FALSE|bound_elsewhere (ssRNA)
RNA: GGGAGUUCUACAGUCCGACGAUCUGCCCAGGACGCACCUCUGCCUAAGGGGGCAGACUUGAUAGAGGAGGCUGCCAGCCGUAUAGUGGAUGCUGUCAUCGAACAAGUCAAGGCCGCUGGAGCACUGCUUACUGAGGGGGAGGCCAACAGAGGAUUGAGCAUCA
B8: chr1:17067933:17068034:-|3pUTR|ENSG00000117115|msi1|FALSE|unique (ssRNA)
RNA: GGGAGUUCUACAGUCCGACGAUCACAUAAGGACCCUGGCCUACCCUCCAGCCCAACAGCCAGUUCUGGGUCAGCUGCCAACUUAGGGGUGGUUUGAUUAUCCCAUUGAAAUUCACCAGUGCCUUUGCCAAAGACCCUCUCAUUCAACAGAGGAUUGAGCAUCA
B9: chr3:49887309:49887562:-|CDS|ENSG00000164078|control|control|control (ssRNA)
RNA: GGGAGUUCUACAGUCCGACGAUCGGAGGCAGACCCAGCAGUGCGACCCACCUUCAGAGUACUAGUGGGGGAGGUGGAGCAGAUAGUGUCUGCACUGCUUGGGGACCAUUAUGUGCAGCUGCCAGCAACCUACAUGAACUUGGGCAACAGAGGAUUGAGCAUCA
B10: chr9:5123879:5124511:-|three_prime_utr|ENSG00000120210|control|control|control (ssRNA)
RNA: GGGAGUUCUACAGUCCGACGAUCCUGGUAAAUUGGAUUGCCAUAUGCAGAAGAAUGAAACUGGACCCAUAUUUAUCACCAUAUAGAAAAAUUAACUCGAUCGAUUACAGACUUAAAUGUAAGAUCUGAAACUAGAAAAAUACUCAACAGAGGAUUGAGCAUCA
B11: ENSG00000198589:be:win_7051|CDS|ENSG00000198589|bound_else_gene|NA|bound_elsewhere_windowed (ssRNA)
RNA: GGGAGUUCUACAGUCCGACGAUCCCUGAAUUUUAUUAUCUCCCUGAGAUGUUUGUCAACUUCAAUAAUUAUAAUCUUGGAGUGAUGGAUGAUGGGACAGUAGUGUCUGAUGUCGAACUUCCUCCUUGGGCCAAAACCUCAGAACAACAGAGGAUUGAGCAUCA
B12: chr2:210612109:210612263:+|CDS|ENSG00000021826|unk|total|mutant (ssRNA)
RNA: GGGAGUUCUACAGUCCGACGAUCUAUUGGUCGUACCUUUGAGGAGAGUUUCCAGAAAGCUUUACGGAUGUGCCACCCAUCUACCGAAGGUUUCACUCCCCGUCUCCCAAUGAACAAAGAAUGGCCAUCUAAUUCCGAUCUCCGCAACAGAGGAUUGAGCAUCA
B13: chr11:20156216:20156573:-|CDS|ENSG00000109851|control|control|control (ssRNA)
RNA: GGGAGUUCUACAGUCCGACGAUCAUCUGGUUCCAGAACCGACGCAUGAAAUGGCGGAACUCCAAGGAGCGCGAACUCCUGUCUAGCGGGGGCUGUCGCGAGCAGACCCUGCCCACCAAGCUCAAUCCGCACCCGGACCUCAGCCAACAGAGGAUUGAGCAUCA
B14: chr8:80637648:80637749:-|3pUTR|ENSG00000164684|unk|FALSE|unique (ssRNA)
RNA: GGGAGUUCUACAGUCCGACGAUCUGCGCUUAGCUGCAAAGUGCCUGUCAGCAGCUCCAGGCACCAACAAGGUGCCCUUUUAUUAGACAAUUCCUGCCCGAACAUAACCAUAUUGCAGAUGAAAAUUUUCAAUAGAGAAUGACACAACAGAGGAUUGAGCAUCA

The binders below were run against T1, UNK ZnF1-6 (called full-length) (assay: nsRBNS (natural sequence RNA bind-n-seq); RBNS binding buffer (assumed for nsRBNS): 25 mM Tris pH 7.5, 150 mM KCl, 3 mM MgCl2, 0.01% Triton X-100, 500 ug/ml BSA, 20 U/ml SUPERase-In, 4 C; UNK is unkempt and MSI1 is Musashi-1; names of the RNAs are library labels; protein concentration not given here; high values mean tight binding).
In the case of B1, the binding signal is reported as 3.92 enrichment R.
B2 showed a binding signal of 0.64 enrichment R.
Work on B3 yielded a binding signal of 0.626 enrichment R.
For B4, the binding signal was 0.805 enrichment R.
Work on B5 yielded a binding signal of 1.04 enrichment R.
With B6 the binding signal was 0.453 enrichment R.
Binder B7 has a binding signal of 0.861 enrichment R.
Work on B8 yielded a binding signal of 0.896 enrichment R.
For B9, the binding signal was 0.887 enrichment R.
Work on B10 yielded a binding signal of 21.7 enrichment R.
B11 showed a binding signal of 0.368 enrichment R.
B12 showed a binding signal of 0.476 enrichment R.
With B13 the binding signal was 0.574 enrichment R.
In the case of B14, the binding signal is reported as 0.967 enrichment R.

Source: article PMC12136788
